Measurements from the supplement of paper PMC11417369.
This is one part of the list.

system: PfAP2-HC AP2 domain (GST-tagged); test: gcPBM binding intensity (ln(normalized median fluorescence intensity)); higher = stronger DNA binding
Outline: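 The binding buffer was 1× PBS containing 1% milk, 0.2 mg/ml BSA, 0.5% salmon testes DNA and 0.03% Triton X-100. In it, GST-tagged P. falciparum DNA-binding domains expressed in E. coli were applied for 1 h to an Agilent 4 × 180k array of primer-extended double-stranded 36-bp intergenic genomic probes plus negative controls. Binding intensity, read with Alexa488 anti-GST antibody and a 488 nm scan, is the highest Masliner-normalised natural-log median intensity across replicate spots of either probe orientation.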

Sequence | gcPBM binding intensity (ln)
GATATATTACTTAAAATACACACCATGGAAAAGTTT [CACACA_site2606] | 9.7
GAATATGTTAACATTTGTACATAAAATTTTTTACAA [XGTACX_site2444] | 9.49
ATGTTTAAATTTTTCAGTACATATATTCTAGTAAAA [XGTACX_site1010] | 9.36
ACTATATTTCATAACAGTACATATTCCTGAAACATC [XGTACX_site4924] | 9.65
ACAATATAAAAAAATTGTACATAATATATAATATTA [XGTACX_site1040] | 9.68
CATGCTTATATGTGCACACACAAAAGAAAAGAAAAA [CACACA_site1655] | 10.1
TGTTACATAAAATGCACACTTTCAAATATGCTAATA [CACACA_site2925] | 9.57
GAGATAAAATAAAACACACACATATATATATAGAAT [CACACA_site2197] | 10.5
AAAAAAATCTCCAGTGTGCACAATCACATAATATAT [GTGCAC_site9833] | 10.5
TATAAGCTAAGTTGTTGTACAAAAAGGAAAAGTATA [XGTACX_site3741] | 9.93
AATATATGGTTTCATGATATTAAATTCAATTTAATG [GTGCAC_negctrl_site370] | 9.31
TTTTCTTTTAAGTTTGTTTTACACTTTTTATTTTGA [CACACA_negctrl_site1581] | 9.76
TATACGTATTTTATATGTACACATATACATATTTAT [XGTACX_site5301] | 10
AAATATAAATATACTCGTACATATATATATATATAT [XGTACX_site6940] | 9.72
ATATATATATATAGTAGTACTCTCTCTGTATATATA [XGTACX_site3754] | 9.97
ATTTAGAAAAATAAAACACACATATATCTGTAAATA [CACACA_site6119] | 9.82
TTCCTTTGTTGTCGTTGTACTTATATGGTTATAATT [XGTACX_site3082] | 9.81
TATACATAAAAAAATTTTACCAGGTTAATACAAATA [CACACA_negctrl_site1171] | 9.58
TACCTTATGTTATATACACACATATAACATAATATA [CACACA_site6741] | 9.72
AAATGACTATATAAAAGTACTAGAAAGTATAAATAT [XGTACX_site944] | 9.82
CATCCGTTGATATATGCATGCATATTGTTATTACCA [TGCATGCA_site868] | 9.86
AAAATACACGATAGTTGTACATTAAATGTATACAAT [XGTACX_site360] | 9.88
TCTAATACACAATGTTGTACATATTAATATATATGT [XGTACX_site2931] | 9.73
ATCATTCTTAAACCGTGTACTTATTATTTTTTTTTT [XGTACX_site2798] | 9.77
